Viability of KB3-1 and Nalm-6 cells after 48 h of drug alone (CellTiter-Glo), 11 doses over about 4.5 log units. % of DMSO wells, lower = more cell loss; AC50 from the fitted curve, lower = more potent. No active / inactive call. Nalm-6 was screened in two runs. AC50 is listed only for well-fitted inhibitory curves. KB3-1 is a HeLa-derived carcinoma line, Nalm-6 a B-cell precursor leukaemia line.
Key:
[1] = tested on: KB3-1; assay: viability (% of DMSO control); higher = more viable cells
Procedure: (§1)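 Eleven-dose screen of the NCATS MIPE 3 library on cells without co-treatment; CellTiter-Glo after 48 h, as % of DMSO wells.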

[2] = tested on: Nalm-6; assay: as above
Procedure: as §1

[3] = tested on: KB3-1; assay: log AC50 of viability decrease (48 h) (log10 M); higher = less potent
Procedure: (§2)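 Eleven-dose screen of the NCATS MIPE 3 library on cells without co-treatment; CellTiter-Glo after 48 h. AC50 from the curve fit; only inhibitory curves of the better fit classes are listed.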

[4] = tested on: Nalm-6; assay: as above
Procedure: as §2

Structure (SMILES): CC(=O)Nc1sc2c(c1-c1nc3ccccc3s1)CNC2
- viability ([1]; 0.00078 µM): 101%
- viability ([1]; 0.00234 µM): 100%
- viability ([1]; 0.00702 µM): 104%
- viability ([1]; 0.0211 µM): 105%
- viability ([1]; 0.0632 µM): 104%
- viability ([1]; 0.19 µM): 109%
- viability ([1]; 0.569 µM): 105%
- viability ([1]; 1.71 µM): 106%
- viability ([1]; 5.12 µM): 105%
- viability ([1]; 15.4 µM): 83.7%
- viability ([1]; 46.1 µM): 6.01%
- viability ([2]; run: 1, 0.00078 µM): 105%
- viability ([2]; run: 1, 0.00234 µM): 100%
- viability ([2]; run: 1, 0.00702 µM): 111%
- viability ([2]; run: 1, 0.0211 µM): 113%
- viability ([2]; run: 1, 0.0632 µM): 103%
- viability ([2]; run: 1, 0.19 µM): 111%
- viability ([2]; run: 1, 0.569 µM): 117%
- viability ([2]; run: 1, 1.71 µM): 102%
- viability ([2]; run: 1, 5.12 µM): 97.1%
- viability ([2]; run: 1, 15.4 µM): 58.5%
- viability ([2]; run: 1, 46.1 µM): 4.59%
- viability ([2]; run: 2, 0.00078 µM): 108%
- viability ([2]; run: 2, 0.00234 µM): 104%
- viability ([2]; run: 2, 0.00702 µM): 105%
- viability ([2]; run: 2, 0.0211 µM): 101%
- viability ([2]; run: 2, 0.0632 µM): 99.7%
- viability ([2]; run: 2, 0.19 µM): 104%
- viability ([2]; run: 2, 0.569 µM): 109%
- viability ([2]; run: 2, 1.71 µM): 105%
- viability ([2]; run: 2, 5.12 µM): 98.5%
- viability ([2]; run: 2, 15.4 µM): 64.1%
- viability ([2]; run: 2, 46.1 µM): 4.64%
- log AC50 of viability decrease [3]: -4.63
- log AC50 of viability decrease ([4]; run: 1): -4.78
- log AC50 of viability decrease ([4]; run: 2): -4.78

Structure (SMILES): CC(NCc1ccc2c(c1)[nH]/c(=N\C(=O)c1ccc(-c3cn[nH]c3)s1)n2CC(C)(C)O)C(C)(C)C (stereo not given)
- viability ([1]; 0.00078 µM): 97.3%
- viability ([1]; 0.00234 µM): 97.6%
- viability ([1]; 0.00702 µM): 100%
- viability ([1]; 0.0211 µM): 80.5%
- viability ([1]; 0.0632 µM): 36.2%
- viability ([1]; 0.19 µM): 12.8%
- viability ([1]; 0.569 µM): 11.3%
- viability ([1]; 1.71 µM): 8.23%
- viability ([1]; 5.12 µM): 6.31%
- viability ([1]; 15.4 µM): 5.38%
- viability ([1]; 46.1 µM): 2.33%
- viability ([2]; run: 1, 0.00078 µM): 89.1%
- viability ([2]; run: 1, 0.00234 µM): 93.2%
- viability ([2]; run: 1, 0.00702 µM): 80.3%
- viability ([2]; run: 1, 0.0211 µM): 52.4%
- viability ([2]; run: 1, 0.0632 µM): 42.3%
- viability ([2]; run: 1, 0.19 µM): 17.4%
- viability ([2]; run: 1, 0.569 µM): 5.24%
- viability ([2]; run: 1, 1.71 µM): 5.47%
- viability ([2]; run: 1, 5.12 µM): 3.23%
- viability ([2]; run: 1, 15.4 µM): 1.41%
- viability ([2]; run: 1, 46.1 µM): 1.08%
- viability ([2]; run: 2, 0.00078 µM): 92.3%
- viability ([2]; run: 2, 0.00234 µM): 99.4%
- viability ([2]; run: 2, 0.00702 µM): 84%
- viability ([2]; run: 2, 0.0211 µM): 58%
- viability ([2]; run: 2, 0.0632 µM): 55.3%
- viability ([2]; run: 2, 0.19 µM): 7.09%
- viability ([2]; run: 2, 0.569 µM): 4.06%
- viability ([2]; run: 2, 1.71 µM): 7.16%
- viability ([2]; run: 2, 5.12 µM): 2.26%
- viability ([2]; run: 2, 15.4 µM): 1.21%
- viability ([2]; run: 2, 46.1 µM): 0.685%
- log AC50 of viability decrease [3]: -7.38
- log AC50 of viability decrease ([4]; run: 1): -7.43
- log AC50 of viability decrease ([4]; run: 2): -7.33

Structure (SMILES): Cc1cnc(Nc2ccc(F)cc2Cl)nc1-c1c[nH]c(C(=O)N[C@H](CO)c2cccc(Cl)c2)c1
- viability ([1]; 0.00078 µM): 102%
- viability ([1]; 0.00234 µM): 105%
- viability ([1]; 0.00702 µM): 98.6%
- viability ([1]; 0.0211 µM): 107%
- viability ([1]; 0.0632 µM): 101%
- viability ([1]; 0.19 µM): 99.2%
- viability ([1]; 0.569 µM): 101%
- viability ([1]; 1.71 µM): 93.7%
- viability ([1]; 5.12 µM): 83.8%
- viability ([1]; 15.4 µM): 77.6%
- viability ([1]; 46.1 µM): 0.751%
- viability ([2]; run: 1, 0.00078 µM): 116%
- viability ([2]; run: 1, 0.00234 µM): 112%
- viability ([2]; run: 1, 0.00702 µM): 125%
- viability ([2]; run: 1, 0.0211 µM): 118%
- viability ([2]; run: 1, 0.0632 µM): 118%
- viability ([2]; run: 1, 0.19 µM): 118%
- viability ([2]; run: 1, 0.569 µM): 107%
- viability ([2]; run: 1, 1.71 µM): 97.3%
- viability ([2]; run: 1, 5.12 µM): 91.1%
- viability ([2]; run: 1, 15.4 µM): 60.5%
- viability ([2]; run: 1, 46.1 µM): -1.26%
- viability ([2]; run: 2, 0.00078 µM): 107%
- viability ([2]; run: 2, 0.00234 µM): 112%
- viability ([2]; run: 2, 0.00702 µM): 110%
- viability ([2]; run: 2, 0.0211 µM): 113%
- viability ([2]; run: 2, 0.0632 µM): 117%
- viability ([2]; run: 2, 0.19 µM): 113%
- viability ([2]; run: 2, 0.569 µM): 110%
- viability ([2]; run: 2, 1.71 µM): 104%
- viability ([2]; run: 2, 5.12 µM): 107%
- viability ([2]; run: 2, 15.4 µM): 92.1%
- viability ([2]; run: 2, 46.1 µM): -1.01%
- log AC50 of viability decrease [3]: -4.68
- log AC50 of viability decrease ([4]; run: 1): -4.78
- log AC50 of viability decrease ([4]; run: 2): -4.63

Structure (SMILES): CCc1cc(-c2n[nH]c(C)c2-c2ccc3c(c2)OCCO3)c(O)cc1O
- viability ([1]; 0.00078 µM): 97.2%
- viability ([1]; 0.00234 µM): 99.9%
- viability ([1]; 0.00702 µM): 104%
- viability ([1]; 0.0211 µM): 105%
- viability ([1]; 0.0632 µM): 103%
- viability ([1]; 0.19 µM): 102%
- viability ([1]; 0.569 µM): 96.3%
- viability ([1]; 1.71 µM): 90.1%
- viability ([1]; 5.12 µM): 57%
- viability ([1]; 15.4 µM): 57.5%
- viability ([1]; 46.1 µM): 46.3%
- viability ([2]; run: 1, 0.00078 µM): 102%
- viability ([2]; run: 1, 0.00234 µM): 113%
- viability ([2]; run: 1, 0.00702 µM): 102%
- viability ([2]; run: 1, 0.0211 µM): 111%
- viability ([2]; run: 1, 0.0632 µM): 106%
- viability ([2]; run: 1, 0.19 µM): 105%
- viability ([2]; run: 1, 0.569 µM): 96.5%
- viability ([2]; run: 1, 1.71 µM): 85.7%
- viability ([2]; run: 1, 5.12 µM): 73.4%
- viability ([2]; run: 1, 15.4 µM): 49%
- viability ([2]; run: 1, 46.1 µM): 12.1%
- viability ([2]; run: 2, 0.00078 µM): 105%
- viability ([2]; run: 2, 0.00234 µM): 96.3%
- viability ([2]; run: 2, 0.00702 µM): 99.5%
- viability ([2]; run: 2, 0.0211 µM): 106%
- viability ([2]; run: 2, 0.0632 µM): 104%
- viability ([2]; run: 2, 0.19 µM): 108%
- viability ([2]; run: 2, 0.569 µM): 100%
- viability ([2]; run: 2, 1.71 µM): 89.2%
- viability ([2]; run: 2, 5.12 µM): 74.1%
- viability ([2]; run: 2, 15.4 µM): 58.2%
- viability ([2]; run: 2, 46.1 µM): 12.3%
- log AC50 of viability decrease [3]: -5.58
- log AC50 of viability decrease ([4]; run: 1): -4.83
- log AC50 of viability decrease ([4]; run: 2): -4.78

Structure (SMILES): CCN(CC)CCCCNc1ncc2cc(-c3cc(OC)cc(OC)c3)c(NC(=O)NC(C)(C)C)nc2n1
- viability ([1]; 0.00078 µM): 105%
- viability ([1]; 0.00234 µM): 106%
- viability ([1]; 0.00702 µM): 110%
- viability ([1]; 0.0211 µM): 107%
- viability ([1]; 0.0632 µM): 109%
- viability ([1]; 0.19 µM): 107%
- viability ([1]; 0.569 µM): 107%
- viability ([1]; 1.71 µM): 112%
- viability ([1]; 5.12 µM): 111%
- viability ([1]; 15.4 µM): 83.2%
- viability ([1]; 46.1 µM): 31.2%
- viability ([2]; run: 1, 0.00078 µM): 114%
- viability ([2]; run: 1, 0.00234 µM): 125%
- viability ([2]; run: 1, 0.00702 µM): 128%
- viability ([2]; run: 1, 0.0211 µM): 117%
- viability ([2]; run: 1, 0.0632 µM): 122%
- viability ([2]; run: 1, 0.19 µM): 124%
- viability ([2]; run: 1, 0.569 µM): 116%
- viability ([2]; run: 1, 1.71 µM): 110%
- viability ([2]; run: 1, 5.12 µM): 101%
- viability ([2]; run: 1, 15.4 µM): 79.8%
- viability ([2]; run: 1, 46.1 µM): 2.94%
- viability ([2]; run: 2, 0.00078 µM): 103%
- viability ([2]; run: 2, 0.00234 µM): 106%
- viability ([2]; run: 2, 0.00702 µM): 106%
- viability ([2]; run: 2, 0.0211 µM): 107%
- viability ([2]; run: 2, 0.0632 µM): 107%
- viability ([2]; run: 2, 0.19 µM): 115%
- viability ([2]; run: 2, 0.569 µM): 110%
- viability ([2]; run: 2, 1.71 µM): 107%
- viability ([2]; run: 2, 5.12 µM): 97.1%
- viability ([2]; run: 2, 15.4 µM): 77.2%
- viability ([2]; run: 2, 46.1 µM): 3.17%
- log AC50 of viability decrease [3]: -4.68
- log AC50 of viability decrease ([4]; run: 1): -4.73
- log AC50 of viability decrease ([4]; run: 2): -4.68
